Hit rate of the full screen: of about 120,000 compounds, about 5,300 (4.4%) were called active. Inconclusive results, whose numbers are uncertain, are shown with a selection of clear calls. Calls follow the shape of the dose curve; as a rule, active = well fitted inhibition curve with a large enough effect; inconclusive = small, poorly fitted or top-dose-only effect; inactive = no such curve, though single readings can be large or run the other way. Potencies of inconclusive entries are doubtful fits and often do not repeat.
Test: qHTS Primary assay for Inhibitors of Plasmodium falciparum Dd2 growth in vitro; also: nearly all actives have a fitted effect of over 65% in size
Details: P. falciparum Dd2 growth, SYBR Green, 72 h; series mostly up to 28.9 µM
Procedure, shortened: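 Infected erythrocytes (Dd2, 0.3% parasitemia, 2.5% hematocrit final) are added to compound in RPMI-1640/Albumax II medium, grown 72 h at 37C in low oxygen, then lysed with saponin/Triton-X containing SYBR Green and read by fluorescence.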
In the case of `CN(c1ccccc1)c1ccc2nnc(-c3cc(C(=O)Nc4ccn(C)n4)ccn3)n2n1`, the Potency is reported as “inactive”.
In the case of `Cc1ccc(-c2ccc3nnc(CNC(=O)c4ccco4)n3n2)cc1C`, the Potency is reported as “inactive”.
With `Cc1cccc(C(=O)N2CCC(CC(=O)NCc3ccccc3)C2)c1` (centres undefined) the Potency was “inactive”.
With `COc1ccc(C(CC(=O)N2CCC(C(N)=O)CC2)c2ccccc2)cc1` (centres undefined) the Potency was “inactive”.
In the case of `CCOC(=O)c1cc(-c2ccc(OC)cc2)n(CCC(=O)NCCc2ccc(OCC)c(OCC)c2)c1C`, the Potency is reported as inconclusive: 11.2 µM [inhibitor, single point].
In the case of `COc1cccc(OC)c1-c1c(-c2ccccc2)ncn1CCCSC`, the Potency is reported as active: 10 µM.
With `O=C(C[C@H]1NC(=O)c2ccccc2NC1=O)Nc1nc2c(s1)CCC2` the Potency was inconclusive: 0.708 µM [inhibitor, partial curve, poor fit].
In the case of `Cc1nc2cccnc2n1CC1CCCN(S(=O)(=O)c2ccccc2F)C1` (centres undefined), the Potency is reported as inconclusive: 10 µM [inhibitor, single point].
In the case of `O=C(CCn1cncn1)N1CCC2(CCC(=O)N(CCc3ccncc3)C2)CC1`, the Potency is reported as inconclusive: 2 µM [inhibitor, partial curve, poor fit].
In the case of `COc1ccccc1CN1C[C@@H](CO)[C@H](c2ccccn2)C1`, the Potency is reported as inconclusive: 5.62 µM [inhibitor, partial curve, poor fit].
In the case of `O=C(NC1CCCCC1)N1C[C@@H]2C[C@H](C1)c1c(-c3cccs3)ccc(=O)n1C2`, the Potency is reported as “inactive”.
With `COc1ccc(C(=O)N[C@@H]2CCC[C@@H]2C(=O)N2CCN(c3cccc(Cl)c3)CC2)cn1` the Potency was inconclusive: 7.94 µM [inhibitor, single point].
With `COCCN1CCC(N2CCN(C(=O)c3ccsc3)CC2)C1=O` (centres undefined) the Potency was “inactive”.
With `COc1cccc(Nc2ncc(-c3ccc(OC)nc3)c3c2OCC3)c1` the Potency was inconclusive: 11.2 µM [inhibitor, single point].
For `CCCCNC(=O)CSc1nc2ccccc2nc1Cc1ccccc1`, the Potency was “inactive”.
In the case of `CCN(Cc1ccccc1)C(=O)c1cc(COc2ccccc2)[nH]n1`, the Potency is reported as inconclusive: 14.1 µM [inhibitor, single point].
In the case of `COc1ccccc1S(=O)(=O)NC1CCCN(C2CCCCCC2)C1` (centres undefined), the Potency is reported as inconclusive: 10 µM [inhibitor, partial curve].
For `CCC(CC)C(=O)N1CC(c2nnc(-c3ccc(C)cc3)o2)C2(CCOCC2)C1` (centres undefined), the Potency was inconclusive: 17.8 µM [inhibitor, single point].
In the case of `Cc1cccc(NC(=O)CCS(=O)(=O)c2cc(Br)cc3c2N(C(=O)C2CC2)CC3)c1C`, the Potency is reported as inconclusive: 7.94 µM [inhibitor, partial curve].

— PubChem BioAssay AID1347417 (National Center for Advancing Translational Sciences (NCATS), 2020)
Potency is read from the fitted curve at half-maximal effect; tags tell the direction and shape of the fitted curve.
